Read counts are not given, so values of variants with three or more changes are uncertain.

For 167 variants, self-cleavage results are on record in the RNAGym collection of RNA variant scans (doi:10.1093/nar/gkz1192).

The chains are these.
B1: CPEB3 Ribozyme (parent)
chain: UAACAGGGGGCCACAGCAGAAGCGUUCACGUCGCAGCCCCUGUCAGAUUCUGGUGAAUCUGCGAAUUCUGCUGUAUAUCUC

In the series the parent is B1. As to the kind of experiment: self-cleavage, relative activity (ratio to wild type); higher = more cleavage; in vitro, sequencing. Summed up: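 CPEB3 self-cleaving ribozyme mutant libraries were made by rounds of error-prone PCR, barcoded, and transcribed in vitro with T7 RNA polymerase for 5 hours at 37°C. Cleavage occurred during transcription and a 15 min DNase I step before EDTA stop. RNAs were reverse transcribed with template switching and Illumina-sequenced, with DNA sequencing mapping barcodes to variants. Relative activity is the variant's cleaved/total read fraction divided by wild type's (minimum 5 reads), averaged across three batches.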
With A35G U54C U60C U69A, the self-cleavage was found to be 0.49.

Turning to A35G A45G U58C U76C U80C, the self-cleavage worked out at 1.08.

Regarding A35G C40U U54C U60C, the self-cleavage was 0.4.

Regarding A35G C44U A47G U48C A57U U67C U74C, the self-cleavage was 0.03.

On to A35G G36C U78C, for which the self-cleavage stood at 0.11.

With A35G G55U A56G, the self-cleavage was 1.27.

Take A35G C44U U72C C79A: the self-cleavage turned out to be 1.06.

For A35G U49A U51A A56G, the self-cleavage worked out at 1.05.

As to A35G A64U U69A, the self-cleavage came to 0.72.

Consider A35G U51C A56G, for which the self-cleavage was determined as 1.34.

Regarding A35G U41C A45G U72C, the self-cleavage came to 1.22.

As to A35G U43G U48C U69C, the self-cleavage came out at 0.07.

As for A35G U41C U49C G52A C62U U74A, the self-cleavage is 0.23.

In the case of A35G U51C C62G A65G, the self-cleavage is 0.7.

In the case of A35G U72A U80C, the self-cleavage stood at 1.22.

On to C34U U66C U69C, for which the self-cleavage came to 0.47.

For A35G C40A G42A A64G, the self-cleavage was determined as 0.1.

Regarding A35G A45G U51A U69A U78C, the self-cleavage is 1.17.

For the variant A35G U41C U76G, the self-cleavage came to 1.29.

Consider A35G U43C A56G A65U, for which the self-cleavage turned out to be 0.25.

In the case of C34U U49C A56U C62U U74C, the self-cleavage is 0.11.

As for A35G U51A U67C, the self-cleavage was 0.84.

Turning to A35G U43A C44U U49A U69A, the self-cleavage was determined as 0.24.

On to A35G C40U U51C U60C, for which the self-cleavage was determined as 0.63.

For A35G G46A C62U, the self-cleavage worked out at 0.18.

Take A35G U41C U66C U78C: the self-cleavage was found to be 1.12.

Consider A35G U51A U78A, for which the self-cleavage worked out at 1.31.

On to A35G G36C U43G A57G, for which the self-cleavage was found to be 0.05.

Turning to A35G A64G U74C, the self-cleavage turned out to be 1.29.

Regarding A35G U43A U54C A64U U67C, the self-cleavage turned out to be 0.2.

In the case of A35G G36A U41C, the self-cleavage was 1.34.

As to A35G A64U U78A, the self-cleavage is 1.33.

Take A35G U74A U78C: the self-cleavage came out at 1.31.

A35G G42U U43A: the self-cleavage came out at 0.32.

As for A35G A45G U67A, the self-cleavage is 1.02.

In the case of A35G A47G U74C, the self-cleavage worked out at 1.4.

As for A35G G52A U60C A64U U67A, the self-cleavage came to 0.71.

For the variant A35G U41C A45U G46A U51C U60C, the self-cleavage is 0.17.

With A35G A64C U74G, the self-cleavage was 1.1.

Take A35G A47G U54C: the self-cleavage is 1.29.

For the variant A35G U80A C81U, the self-cleavage was 1.28.

A35G U54C U69C U76A U80A: the self-cleavage worked out at 1.3.

On to A35G C39U U54C U80A, for which the self-cleavage came out at 1.26.

Take A35G C37U U43C U48A: the self-cleavage came out at 0.31.

Turning to A35G U41C U43C, the self-cleavage is 1.05.

In the case of A35G U43C A56G C62U, the self-cleavage is 0.2.

With A35G G53C U60G U67C U72A, the self-cleavage came to 0.35.

For A35G G53U U80C, the self-cleavage turned out to be 1.29.

With A35G U72A U76G A77G, the self-cleavage stood at 1.32.

Take A35G U51C U72A: the self-cleavage came out at 1.26.

On to A35G U58A U72C, for which the self-cleavage turned out to be 0.98.

As for A35C A45G U49C U72C U78C, the self-cleavage was 0.14.

Regarding A35G U41C U48C, the self-cleavage was found to be 1.18.

For C34U G63U U78G, the self-cleavage worked out at 0.75.

Turning to C34U U49C U58C U60A U72C, the self-cleavage is 0.1.

Regarding A35G U54C A64G, the self-cleavage is 1.39.

As to A35U A45G A64G, the self-cleavage was determined as 0.22.

In the case of A35G U48C U60C A64G U74C U80A, the self-cleavage was 0.64.

For the variant A35G U54C A64G U80A, the self-cleavage is 1.28.

As to A35G U69A U80A, the self-cleavage was 0.98.

On to A35G U48A U54A, for which the self-cleavage was 1.09.

A35G U60C A65U U72C: the self-cleavage was found to be 0.45.

Turning to A35G U41C U51C A56G U74C A77G, the self-cleavage stood at 1.45.

As to A35G U58C C81U, the self-cleavage came to 1.17.

Take A35G A47G A65G U69C U78C: the self-cleavage is 0.66.

As to A35G G36A U58C, the self-cleavage stood at 0.32.

A35G U48C A57G: the self-cleavage is 1.25.

Turning to A35C U49A U58A U72A, the self-cleavage came out at 0.14.

For the variant A35G C38A U58A, the self-cleavage stood at 0.27.

On to A35G A45U U58A, for which the self-cleavage was 0.26.

With A35G U72C A75G, the self-cleavage was determined as 1.54.

For A35G U51G U60A A64G A65G U69C, the self-cleavage stood at 0.7.

A35G A45U C68U: the self-cleavage came out at 1.07.

For the variant A35C U41C A56U, the self-cleavage was found to be 0.56.

For A35G A65U U76A, the self-cleavage stood at 0.89.

For A35G U60C A77U, the self-cleavage was determined as 1.05.

Turning to A35G U54C A57G U66A, the self-cleavage was 1.12.

As to A35G U54A U60G A65U C71A, the self-cleavage amounted to 0.89.

For A35C U41C U51G U54A, the self-cleavage is 0.69.

For A35G U49A G73A, the self-cleavage worked out at 1.27.

In the case of A35G C40A U67A U69A A77U, the self-cleavage is 0.08.

As for A35C A47G U69A A77U, the self-cleavage amounted to 0.49.

Consider A35G A47U U51C, for which the self-cleavage turned out to be 0.94.

As for A35G A56U U60A U76A, the self-cleavage is 0.78.

A35G A45G A65G: the self-cleavage is 1.1.

Turning to A35U A45C U54C A65U, the self-cleavage was determined as 0.1.

Consider A35G A47U A65G, for which the self-cleavage stood at 0.63.

As for A35G U48C A57G U60A U66C A75G U78C, the self-cleavage was 0.37.

With A35G A56G G73C, the self-cleavage is 1.25.

Turning to A35C C68G U69C, the self-cleavage was 0.16.

On to A35G C40A U69C, for which the self-cleavage amounted to 0.19.

For the variant A35C U41C A64U U66C, the self-cleavage was 0.27.

For C34U U48C U78C, the self-cleavage stood at 0.07.

With C34U U67C C71A, the self-cleavage was 0.06.

As to C34U C39A A57G A64G U76A, the self-cleavage amounted to 0.05.

A35G A65G U80A: the self-cleavage came to 1.14.

As for C34U A56U A57U U72A U80C, the self-cleavage turned out to be 0.1.

With A35G G61U A77U, the self-cleavage is 1.16.

Turning to A35C A47G A57G, the self-cleavage was determined as 0.4.

For A35G A45C U54G A56U U80A, the self-cleavage turned out to be 0.36.

On to A35G U41A U78C, for which the self-cleavage was 0.34.

As to A35G U69C U78C, the self-cleavage turned out to be 1.24.

Consider A35C U67C U74C, for which the self-cleavage was 0.21.

As to A35G U80C C81U, the self-cleavage was found to be 1.26.

For A35C U58G U78C, the self-cleavage came to 0.35.

On to A35G U43A U78G, for which the self-cleavage amounted to 1.29.

For A35G U41A U49C, the self-cleavage was 0.36.

In the case of A35G U51A U67C U78C, the self-cleavage worked out at 0.94.

For A35G U43A U80C, the self-cleavage is 1.28.

As to A35G A57C U58C U60C C62U, the self-cleavage came out at 0.53.

As to A35C U41C G52A, the self-cleavage was found to be 1.1.

On to A35G A45G A57G U69C, for which the self-cleavage stood at 1.11.

For the variant A35G U60A A65G U80C, the self-cleavage was 0.82.

Take A35G U41A A45U G53A U54A U78C: the self-cleavage came to 0.12.

On to A35G A47G U49C U66C, for which the self-cleavage worked out at 0.22.

A35G U78A U80A: the self-cleavage was determined as 1.31.

For the variant A35G A57G A64U, the self-cleavage stood at 0.99.

A35C U67C U69A: the self-cleavage turned out to be 0.18.

In the case of A35G A45U A57G U72C, the self-cleavage came to 1.01.

As to C34U U41C A64G U78C U80A, the self-cleavage was 0.15.

In the case of A35G A65G A77G, the self-cleavage is 1.04.

As for A35G G53C U67C U72C, the self-cleavage was 0.6.

For A35G U41C G46U U54C U67C G70A, the self-cleavage was 0.13.

On to C34U U41C U51C U69A, for which the self-cleavage stood at 0.08.

For A35G U67C C68A U74C, the self-cleavage came out at 1.06.

As for C34U C40G U43C A45U U49A U54C, the self-cleavage amounted to 0.07.

As to A35G A45U A65G U66C, the self-cleavage amounted to 0.33.

Turning to A35G C40A A75U, the self-cleavage was found to be 0.6.

Turning to A35G U48C U51G, the self-cleavage came out at 0.96.

A35G U48C U51C: the self-cleavage stood at 1.06.

For the variant A35C C44U U54A A64G, the self-cleavage came out at 0.1.

A35G C39U U54C U69A A75G: the self-cleavage was 1.13.

Consider A35G U49C A56U, for which the self-cleavage turned out to be 0.94.

As to A35G A56G C62A, the self-cleavage was 0.26.

In the case of A35C A47G U60C U69C, the self-cleavage is 0.28.

For the variant A35G G46A U78A U80A, the self-cleavage worked out at 1.27.

Consider A35G A56U A65G U69C U72A, for which the self-cleavage amounted to 0.79.

With A35G G36U U41C, the self-cleavage was found to be 1.04.

Regarding A35G A47G U51C A65G, the self-cleavage was 0.63.

For A35G U60A U67A, the self-cleavage is 0.71.

Consider A35G U60A U67C, for which the self-cleavage came out at 0.66.

On to A35G U54C U60C A64G, for which the self-cleavage turned out to be 0.62.

As to A35G C37U U80C, the self-cleavage stood at 1.22.

For A35G U49C U76C, the self-cleavage came out at 0.95.

With C34U U49C U69C, the self-cleavage came out at 0.05.

Consider A35G A56U C59A, for which the self-cleavage was 0.54.

Consider C34U U43C A65G U72C, for which the self-cleavage was determined as 0.09.

With A35G U60C U67C C68U U78C, the self-cleavage is 0.

As for A35G C39A U41C A47U, the self-cleavage is 0.54.

For A35G A45G U51C G61C U66C, the self-cleavage amounted to 0.37.

Consider A35G U49C U72A, for which the self-cleavage was found to be 0.67.

In the case of A35G A65G U76G, the self-cleavage came to 1.2.

Consider A35G C62U U69G, for which the self-cleavage was found to be 0.48.

In the case of A35G G53C U72A, the self-cleavage turned out to be 1.21.

For the variant A35G U43A U67C, the self-cleavage is 0.31.

For the variant A35G U49C U67A, the self-cleavage worked out at 0.47.

As to A35G U49C U67C, the self-cleavage was found to be 0.29.

For A35G U78C U80C, the self-cleavage was determined as 1.31.

With A35G C39A C71A, the self-cleavage is 0.13.

Consider A35C G61C U80C, for which the self-cleavage is 0.3.

On to A35G C38U A45G, for which the self-cleavage came out at 1.24.

Take A35G G52A U67C U69A: the self-cleavage was 0.69.

Regarding A35G U43C U49A, the self-cleavage is 0.82.

Take A35C A47G U48C: the self-cleavage was determined as 0.27.

Regarding A35G U48C A56G U60C G63A U74A, the self-cleavage is 0.49.

For A35G U43A U54A U72C, the self-cleavage amounted to 1.35.

For A35G U51A A56G U67C, the self-cleavage was determined as 0.52.
